According to PubChem BioAssay AID485294 (National Center for Advancing Translational Sciences (NCATS), 2010):
Out of some 370,000 compounds screened, about 150 (0.041%) were called active. The inconclusive results got no clear call from the source; some entries with a clear call stand among them for comparison. Calls come from the whole dose curve; as a rule, active = well fitted inhibition curve with a large enough effect; inconclusive = small, poorly fitted or top-dose-only effect; inactive = flat fitted curve, though single readings scatter. Potencies of inconclusive entries are left out as doubtful fits.

Target: Beta-lactamase (Escherichia coli (strain K12)) (UniProt P00811)
UniProt P00811, sequence (P00811 whole entry, looked up): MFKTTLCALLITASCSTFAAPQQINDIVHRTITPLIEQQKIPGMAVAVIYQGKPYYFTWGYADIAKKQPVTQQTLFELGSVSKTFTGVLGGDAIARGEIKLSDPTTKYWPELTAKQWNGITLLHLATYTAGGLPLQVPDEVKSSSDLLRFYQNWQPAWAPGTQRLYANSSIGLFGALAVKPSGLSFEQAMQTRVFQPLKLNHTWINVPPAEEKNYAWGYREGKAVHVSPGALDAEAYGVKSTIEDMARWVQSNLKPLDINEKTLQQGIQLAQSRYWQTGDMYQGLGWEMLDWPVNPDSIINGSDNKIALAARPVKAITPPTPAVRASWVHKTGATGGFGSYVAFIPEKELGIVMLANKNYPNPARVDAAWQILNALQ
Experiment: qHTS Inhibitors of AmpC Beta-Lactamase (assay with detergent); note: nearly all actives have a fitted effect of over 25% in size
Details: AmpC hydrolysis of nitrocefin, absorbance 480 nm, 0.01% Triton; series mostly up to 114 µM
Summary of the method: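 AmpC (5.3 nM in the dispensed reagent) in 20 mM phosphate pH 7.0 with 0.01% (detergent screen) or 0.0001% Triton X-100 was preincubated with compounds for 15 min at room temperature. Nitrocefin was then added from an 800 uM solution, and hydrolysis was followed at 480 nm.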
Potency is the fitted concentration of half-maximal effect; tags give direction and shape of the fitted curve.

SMILES	Potency
COc1ccc(C(=O)NCCn2cc(SCc3cc(C)ccc3C)c3ccccc32)cc1	inactive
C#CCNC(=O)C1=C[C@@H](c2ccc(Br)cc2)C[C@@H](OCc2ccc(CO)cc2)O1	inactive
CCOC(=O)c1cc(-c2ccc(C)cc2)nc2nc(SC)[nH]c(=O)c12	inconclusive [inhibitor, full curve, poor fit]
CC(=O)c1sc(NC(=O)c2ccc(F)cc2)nc1-c1ccccc1	inactive
COc1ccccc1NC(=O)c1ccc2oc(=O)c(S(=O)(=O)c3ccccc3)cc2c1	inactive
N#CC1=C2SCN(Cc3ccco3)CN2C(=O)CC1c1ccc(Cl)cc1 (stereo not drawn)	inactive
O=C(O)CSc1nc2ccc(C(=O)c3ccccc3)cc2[nH]1	inconclusive [inhibitor, full curve]
O=C(/C=N/O)Nc1ccc(F)cc1	inconclusive [inhibitor, partial curve, poor fit]
COCCn1c(=NC(=O)c2ccccc2[N+](=O)[O-])sc2cc(S(C)(=O)=O)ccc21	inconclusive [inhibitor, partial curve]
Cc1ccc(-c2nc3ccccc3[nH]2)cn1	inconclusive [inhibitor, full curve, poor fit]
Nc1c(S(=O)(=O)c2cccc(Cl)c2)c2nc3ccccc3nc2n1CCN1CCOCC1	inconclusive [inhibitor, partial curve]
COc1ccc(OCC(=O)OC(C)CN2CCOCC2)cc1 (stereo not drawn)	inactive
Cn1ncc(Br)c1C(=O)Nc1ccc(F)cc1F	inconclusive [inhibitor, partial curve]
COc1cc(/C=N/NC(=O)c2ccc([N+](=O)[O-])cc2Cl)cc(Br)c1O	inconclusive [inhibitor, full curve, poor fit]
O=C(Nc1ccc(C(=O)N2CCCCC2)cc1)c1cccs1	inconclusive [inhibitor, full curve, poor fit]
O=C(NCC1CCCO1)c1c(O)c2cccc3c2n(c1=O)CCC3 (stereo not drawn)	inconclusive [inhibitor, single point]
c1ccc(-c2nc3nonc3nc2-c2ccccc2)cc1	inconclusive [inhibitor, single point]
Cc1cc(C)cc(NC(=O)CSc2nc3ccccc3nc2N2CCCCC2)c1	inconclusive [inhibitor, partial curve, poor fit]
CCOC(=O)CCCNC(=O)COC(=O)/C=C/c1ccc2c(c1)OCO2	inconclusive [inhibitor, full curve, poor fit]
CCOc1ccc(C(=O)NCC(=O)NCC(c2ccc(OC)cc2)N2CCOCC2)cc1OCC (stereo not drawn)	inconclusive [inhibitor, full curve, poor fit]
O=C(NCC1CCCO1)c1ccc(Br)c(S(=O)(=O)N2CCOCC2)c1 (stereo not drawn)	inconclusive [inhibitor, full curve, poor fit]
CN(Cc1ncc[nH]1)C(=O)CC1C(=O)NCCN1Cc1c(F)cccc1Cl (stereo not drawn)	inactive
CCC(C)(C)n1nnnc1C(c1cc2cccc(C)c2[nH]c1=O)N1CCN(C(=O)c2ccco2)CC1 (stereo not drawn)	inactive

SMILES	Potency
O=C(Cc1c[nH]c2ccccc12)N/N=C/c1ccc(F)cc1	inconclusive [inhibitor, full curve]
O=C(COc1ccc(F)cc1)NN1C(=O)CSC1=S	inconclusive [inhibitor, full curve, poor fit]
CC(C)Cn1c(=O)c2ccccc2n2c(CCC(=O)NCc3ccc(Cl)cc3)nnc12	inactive
COc1cc(NC(=O)CN2C(=O)NC(C)(CC(C)C)C2=O)cc(OC)c1 (stereo not drawn)	inactive
Cc1ccc(S(=O)(=O)Nc2cccc3cccnc23)cc1	inactive
Cc1nc2nc(SCC(=O)N3CCOCC3)nn2c(C)c1Cc1ccccc1	inconclusive [inhibitor, partial curve]
Cc1ccc(S(=O)(=O)C2(C(=O)NCc3ccc4c(c3)OCO4)CC2)cc1	inconclusive [inhibitor, partial curve]
CCCCNC(=O)CSc1nc2ccc(C)cc2[nH]1	inconclusive [inhibitor, full curve, poor fit]
COc1ccc(Cl)cc1NC(=O)CN(C)C(=O)c1ccc(COc2ccccc2)cc1	inconclusive [inhibitor, full curve, poor fit]
COc1ccc(CCNC(=O)c2nnn(-c3cc(C)cc(C)c3)c2N)cc1OC	inconclusive [inhibitor, partial curve]
Cc1ccc(NC(=O)c2ccc(OC(=O)COc3ccc(Cl)cc3C)cc2)cc1	inconclusive [inhibitor, full curve, poor fit]
CCOC(=O)[C@H]1[C@H]2COc3ccc(OC)cc3[C@@H]2N2C(=O)c3cc(OC)ccc3NC(=O)[C@@]12C	inconclusive [inhibitor, single point]
CCOC(=O)N1CCN(C(=O)CNC(=O)c2ccc(Br)o2)CC1	inconclusive [inhibitor, partial curve, poor fit]
CCOC(=O)c1ccn(-c2nc(-c3ccco3)cc(C(F)(F)F)n2)n1	inconclusive [inhibitor, full curve]
O=C(NC1CCCc2ccccc21)c1ccc(Cl)nc1 (stereo not drawn)	inconclusive [inhibitor, single point]
O=C(C1=C(O)C(=O)N(CCN2CCOCC2)C1c1ccccn1)c1cccs1 (stereo not drawn)	inconclusive [inhibitor, partial curve, poor fit]
O=C(O)CSc1c(O)c2ccccc2[nH]c1=O	inactive
O=C(CN1C(=O)c2ccccc2C1=O)Nc1cccc(Cl)c1	inconclusive [inhibitor, partial curve, poor fit]
COC(=O)CCC(=O)c1oc2ccc(Cl)cc2c1NC(=O)CCCN1C(=O)c2ccccc2C1=O	inconclusive [inhibitor, partial curve, poor fit]
O=C(N/N=C/c1cc(Cl)ccc1O)c1ccc(Br)cc1	inconclusive [inhibitor, partial curve, poor fit]
Cc1oc2c(O)c(O)ccc2c(=O)c1-c1ccc(Cl)cc1	inactive
CCOc1ccc(-c2cn3ccccc3n2)cc1[N+](=O)[O-]	inactive
COc1ccc(N(C)S(=O)(=O)c2ccc(Cl)c(C(=O)NCCc3ccc(Cl)cc3)c2)cc1	inconclusive [inhibitor, single point]

SMILES	Potency
COc1ccc(-c2nc3ccc(C(=O)NCCCN4CCOCC4)cc3nc2-c2ccc(OC)cc2)cc1	inconclusive [inhibitor, full curve, poor fit]
CCN(CC)S(=O)(=O)c1ccc(N2CCc3ccccc3C2)nc1	inconclusive [inhibitor, partial curve]
Cc1cc[n+](CC(=O)Nc2cccc(C)c2)cc1	inconclusive [inhibitor, partial curve]
Cn1nc(-c2ccc(Cl)cc2)nc2c(=O)n(C)c(=O)nc1-2	inconclusive [inhibitor, partial curve]
O=C(Cn1ccc([N+](=O)[O-])n1)NCc1ccco1	inconclusive [inhibitor, partial curve]
Cc1cc(C(=O)Nc2cnn(Cc3ccc(Cl)cc3Cl)c2)no1	inconclusive [inhibitor, full curve, poor fit]
CC1CCCN(S(=O)(=O)c2ccc(N3CCCCS3(=O)=O)cc2)C1 (stereo not drawn)	inactive
O=C(COc1ccc2c(-c3ccccc3)cc(=O)oc2c1)NC1CCS(=O)(=O)C1 (stereo not drawn)	inactive
CN1CCN(C(c2ccccc2)c2ccc(Cl)cc2)CC1 (stereo not drawn)	inactive
CC(C)(C)c1ccc(S(=O)(=O)N2CCCCC2C(=O)NCc2ccccn2)cc1 (stereo not drawn)	inconclusive [inhibitor, full curve, poor fit]
CCCN(CCC)CCNC(=O)c1sc2nc3n(c(=O)c2c1C)CCCCC3	inactive
Nc1c(-c2ccccc2)c(CSc2nc3ccccc3[nH]2)nn1-c1ccc(Cl)cc1	inconclusive [inhibitor, full curve, poor fit]
O=C1NC(=S)N(c2ccc(F)cc2)C(=O)/C1=C/c1ccco1	active: 50.1 µM
Cc1ccc(C(=O)Nc2cccc3cccnc23)cc1C	inconclusive [inhibitor, full curve]
C=CCN(c1ccccc1OC)S(=O)(=O)c1cccc(C(=O)NCc2cccs2)c1	inactive
COc1ccc(S(=O)(=O)N(C)CC(=O)N2CCOCC2)cc1	inconclusive [inhibitor, full curve, poor fit]
COc1ccc2c(c1)C(=NNc1ccc(C(=O)O)cc1)c1cc(OC)ccc1-2	inactive
CCCOc1ccc(/C(O)=C2/C(=O)C(=O)N(CCCn3ccnc3)C2c2ccco2)cc1 (stereo not drawn)	inactive
O=C1C2CCCC1C(N1CCCC1)CC2 (stereo not drawn)	inconclusive [inhibitor, full curve, poor fit]
CCCC1(c2ccccc2)NC(=O)N(CC(=O)c2[nH]c(C)c(C(=O)OCC)c2C)C1=O (stereo not drawn)	inactive
CCCn1c(SCC(=O)Nc2cccc(Cl)c2Cl)n[nH]c1=O	inconclusive [inhibitor, partial curve, poor fit]
O=C(NCN1CCN(c2ccccn2)CC1)c1cnccn1	inconclusive [inhibitor, full curve]
